± gives the standard deviation of the averaged measurements. The list shows a part of the results.
tested on: PfAP2-LT AP2 domain (GST-tagged); experiment: gcPBM binding intensity (ln(normalized median fluorescence intensity)); higher = stronger DNA binding
Summary of the method: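 After 1 h on an Agilent 4 × 180k array of primer-extended double-stranded 36-bp intergenic genomic probes and negative controls, bound GST-tagged P. falciparum DNA-binding domains were detected with Alexa488 anti-GST antibody and scanned at 488 nm. The domains had been expressed in E. coli, and binding took place in 1× PBS with 1% milk, 0.2 mg/ml BSA, 0.5% salmon testes DNA and 0.03% Triton X-100. Binding intensity is the highest Masliner-normalised natural-log median intensity across replicate spots of either probe orientation.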

Row | Sequence | gcPBM binding intensity (ln)
1 | TGTATAAGTGCCGTTATACACACGTTATATAAATAT [CACACA_site438] | 8.98 ± 0.33
2 | TATCTTATTTTAAAAGTGCATGGAAAGGGGTTTTTG | 8.65 ± 0.23
3 | TTCATTATTATTAACATACACACGTGTTATATACAC [CACACA_site4112] | 9.15 ± 0.4
4 | AAAAAATACAAGAAATGTACTCAAGCATATATTAAT [XGTACX_site3325] | 9.01 ± 0.41
5 | TTTTTACTATAATTAAAATTAACAAAAGAAAATGAT [GTGCAC_negctrl_site52] | 8.18 ± 0.45
6 | TTCATTTTTTAAGCATCACACACGAAAGAACAAAGT [CACACA_site1122] | 8.98 ± 0.33
7 | ATCAAAAATATAAAAAATATAAACAATTTATTATCA [CACACA_negctrl_site768] | 8.39 ± 0.52
8 | ATATATATAATATGTAGTACTTTCCTCTCAAATCAT [XGTACX_site7766] | 8.86 ± 0.49
9 | TTTACATCCAAAAACTGTACACTTATTTTATAATTC [XGTACX_site5332] | 8.74 ± 0.43
10 | GAATCATATTTAAACACACATACATATATATATATA [CACACA_site3352] | 9.59 ± 0.014
11 | AATAAGTAACAAAATACACACATATATATAATTATA [CACACA_site1837] | 9.21 ± 0.4
12 | TCATAAATTAATAATACATGCATAATATTAAAATGT [TGCATGCA_site5] | 8.78 ± 0.42
13 | AAAAATATATAAGAGAGTACATAAAATAAATTAATT [XGTACX_site1534] | 8.76 ± 0.42
14 | TTTAATAATATAATGTGTACTTAAAAATTTATATAT [XGTACX_site5821] | 8.29 ± 0.4
15 | TCATTTCAATACACAAGTACGTATATGGTTATATTG [XGTACX_site6021] | 8.82 ± 0.4
16 | AATATAAAATAATGCACACATAAACAAAAAATCAAA [CACACA_site1371] | 9.12 ± 0.4
17 | CGAAGGTTTGGCCATGCATGTTATAAGAATATATGT [TGCATGCA_site441] | 8.75 ± 0.34
18 | ATTCTATATATGTGCACACAAAAGATATATATATAT [CACACA_site2124] | 9.72 ± 0.28
19 | TTACATGTACAAAAGTTGCACTTCATACACTTTTAT | 8.99 ± 0.46
20 | TCATTTTATTATTCTACACACTTATCTATAATTACA [CACACA_site6168] | 8.88 ± 0.47

Row | Sequence | gcPBM binding intensity (ln)
21 | AGTATATCAAAATACATACACACATTTGTATATACA [CACACA_site2697] | 9.03 ± 0.34
22 | TACGTTATGTTGAATAGTACAATTTGGTGAACAGGT [XGTACX_site1729] | 8.82 ± 0.42
23 | TTTTTTTTTTTTTTTTGTACACAAATTTATTGTCTA [XGTACX_site2680] | 8.63 ± 0.37
24 | GTCCTCATCCACTATGCACACAAAAAAGAAATACAC [CACACA_site9131] | 9.13 ± 0.4
25 | TTTCCAAATTGTTGACGGACACTCACGAATAGTTAT [XGTACX_site5720] | 8.74 ± 0.45
26 | ACATGAAGATATTTTTGTCCGTACAAATTCATATGA [XGTACX_site1837] | 8.66 ± 0.23
27 | CATATGTATATGACTACACACAAGGGTGTACATATA [CACACA_site1164] | 9.2 ± 0.38
28 | ATGTATATATTTACGTGTACATATTCATGTGATATC [XGTACX_site5871] | 9.03 ± 0.32
29 | TTATACTTTGGGTGGTGTACTATATTATGCTTATAA [XGTACX_site1106] | 9.05 ± 0.17
30 | TGCTATTTTTTCCTTTTTTTGTATCACAATCATATA [CACACA_negctrl_site1576] | 8.75 ± 0.48
31 | ATTAAACATAAATATGCACACATATACATATATTCA [CACACA_site8850] | 9.01 ± 0.38
32 | AGTAATAAAAGTAGAAGTACAATACTTCAAAGATAT [XGTACX_site8562] | 8.86 ± 0.52
33 | TATTTCAAAATATGGGTGCAGTTCTTCATGATATAT [GTGCAC_site9658] | 8.79 ± 0.41
34 | GTTCTAAAAGTTAATGCATGTTATAAGTTTCCCTCT [TGCATGCA_site94] | 8.87 ± 0.44
35 | ATTATATACATTTTAGTGCATTACATAATAATATAA [GTGCAC_site9836] | 8.53 ± 0.41
36 | GTATGCATTATATACACACATACATTTATATATTCT [CACACA_site115] | 9.1 ± 0.38
37 | TTTCTTTTTTGATGCGTGCACATTTGTTTATTTTTC [GTGCAC_site9792] | 9.02 ± 0.47
38 | ACTATTTAATATAGGGTGCAACTTTTTCAAGTAAAT [GTGCAC_site9853] | 8.66 ± 0.42
39 | TTTATTTATTAATACACACACACACCCAGACAAAAT [CACACA_site4292] | 10 ± 0.099
40 | TATCTTTTTACAATAGTGCATATGTTATCATTAATA [GTGCAC_site9489] | 8.69 ± 0.42

Row | Sequence | gcPBM binding intensity (ln)
41 | ATTTGCCCATTTAATTAACACACAAATGTTTATATT [CACACA_site8145] | 9.04 ± 0.46
42 | AGATATATAAATATTACACACTATATATCTATTTAT [CACACA_site6466] | 8.88 ± 0.37
43 | ACCCCCATATTCTTTTTACACACTTGAATAAAAAAT [CACACA_site8319] | 9.51 ± 0.11
44 | ATTTTTCAATTATGTAGTACATTGATATTTTCATTT [XGTACX_site5369] | 8.89 ± 0.39
45 | ATTCATTTTATTTTTTCACACACACCGATATATATA [CACACA_site9097] | 9.54 ± 0.3
46 | AAAGGGGAAAATATTATACATATAATAAATCCGTAT [XGTACX_negctrl_site355] | 8.72 ± 0.52
47 | TTTTTTTTTTTGTGGTGTACCTTTATTTCCTTTTAG [XGTACX_site6934] | 8.79 ± 0.52
48 | AAAAAAAAAAAACACACACACACACCGATACATACA [CACACA_site8849] | 10.4 ± 0.085
49 | ATTTTTATTCTTATTACACACCTAAATATAAAATAT [CACACA_site2064] | 8.71 ± 0.34
50 | TTTATATTTATATTGGGTACATAAAAAGCTTGAAAT [XGTACX_site8248] | 8.32 ± 0.41
51 | ATAAATATGGAGCACACACACATAAACATACATATA [CACACA_site421] | 9.96 ± 0.49
52 | TGTGTCCATTGAACAGTGCAATAAAAACTTTTACAT | 8.69 ± 0.42
53 | TGTGTTCATATATGCACACGCATATATATTATTGTT [CACACA_site3822] | 9.07 ± 0.35
54 | ATGTGCACATGTAGAAGTACTTTTTCTTAAAATACT [XGTACX_site8341] | 9.18 ± 0.54
55 | TATGTTTTATATAAGATGCACTTTTGTTATGCTTCA | 8.79 ± 0.46
56 | ATTCTACACGCACATACACACATATAAATATAAATA [CACACA_site7582] | 9.24 ± 0.35
57 | ATTTATGTTATTGTATGTACACAATATAATGTTATT [XGTACX_site5657] | 9.04 ± 0.35
58 | AAAAAAAAATATATATATATATATATATAATAAAAA [CACACA_negctrl_site639] | 9.36 ± 0.43

Source: the supplement of paper PMC11417369
